Measurements published in the RNAGym collection of RNA variant scans (doi:10.1101/gad.245936.114).
Variants at the background level are over-represented here.

B1: tRNA (parent)
chain: CUCUCGGUAGCCAAGUUGGUUUAAGGCGCAAGACUUUAAUUUAUCACUACGAAAUCUUGAGAUCGGGCGUUCGACUCGCCCCCGGGAGAUUUUUUCCUCGAGCAA

Variants of: B1
Experiment: nonsense suppression (GFP-seq) (ratio to wild type); higher = more function; SUP4oc tRNA, yeast GFP reporter sort-seq
Summary of the method: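 Yeast carrying genome-integrated SUP4oc tRNA variants from a library with ~3% random mutations were grown in raffinose/galactose medium with 80 mg/L adenine. Each strain also carried a galactose-driven GFP ochre reporter and RFP. Cells were sorted into GFP/RFP bins, and each bin was Illumina-sequenced (phred ≥30). Nonsense suppression (GFPSEQ) is the bin median GFP/RFP, weighted by each variant's estimated cell share per bin, relative to wild-type SUP4oc; variants needed ≥100 reads and ≥30 cells.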

Row | Variant | nonsense suppression
1 | C12A A14C | ≤ 0.026
2 | C12A A14C U21G | ≤ 0.026
3 | C12A A14U | ≤ 0.026
4 | C12A A14U U21G G84U | ≤ 0.026
5 | C12A A23G C83A | ≤ 0.026
6 | C12A A24C | 0.035
7 | C12A A24U G69C A87G | ≤ 0.026
8 | C12A A24U G88A | ≤ 0.026
9 | C12A A30G | ≤ 0.026
10 | C12A A30G C79G | ≤ 0.026
11 | C12A A30U | ≤ 0.026
12 | C12A A31G A33G U57A A87G | ≤ 0.026
13 | C12A A31U U63A A74U | ≤ 0.026
14 | C12A A33G C68A A74C | ≤ 0.026
15 | C12A A54G | ≤ 0.026
16 | C12A A60G | ≤ 0.026
17 | C12A A62C U63C G73U | ≤ 0.026
18 | C12A A74G | ≤ 0.026
19 | C12A C27G C77A A87C | ≤ 0.026
20 | C12A C29U | ≤ 0.026
21 | C12A C34A A60C C79A | ≤ 0.026

Row | Variant | nonsense suppression
22 | C12A C34G | ≤ 0.026
23 | C12A C34U U70G C75U | ≤ 0.026
24 | C12A C56A | ≤ 0.026
25 | C12A C56U G69C U70C | ≤ 0.026
26 | C12A C68A | ≤ 0.026
27 | C12A C75G | ≤ 0.026
28 | C12A C77A | ≤ 0.026
29 | C12A C81A | ≤ 0.026
30 | C12A G15C | ≤ 0.026
31 | C12A G15C A33C U71C | ≤ 0.026
32 | C12A G15C U22C | ≤ 0.026
33 | C12A G15U | ≤ 0.026
34 | C12A G15U C34G G65U | ≤ 0.026
35 | C12A G18C A54C G73C | ≤ 0.026
36 | C12A G18U G66A U70C C77G C83U | ≤ 0.026
37 | C12A G18U U70C G88U | ≤ 0.026
38 | C12A G19C U20G C72U | ≤ 0.026
39 | C12A G19U A60U | ≤ 0.026
40 | C12A G19U U35C | ≤ 0.026
41 | C12A G25A G28U G85A | ≤ 0.026
42 | C12A G25C A87U | ≤ 0.026

Row | Variant | nonsense suppression
43 | C12A G26A A87C | ≤ 0.026
44 | C12A G28U C81U | ≤ 0.026
45 | C12A G32A U76C C80G | ≤ 0.026
46 | C12A G59A C81U | ≤ 0.026
47 | C12A G61C C79U | ≤ 0.026
48 | C12A G61U | ≤ 0.026
49 | C12A G67A G88C | ≤ 0.026
50 | C12A G69C | ≤ 0.026
51 | C12A G78A | 0.045
52 | C12A G78U | ≤ 0.026
53 | C12A U16C C75A | ≤ 0.026
54 | C12A U16G | ≤ 0.026
55 | C12A U16G C27G C29A G32C | ≤ 0.026
56 | C12A U17A A33G | ≤ 0.026
57 | C12A U17A G18C U21G G26U U63C G88C | ≤ 0.026
58 | C12A U17C G66C | ≤ 0.026
59 | C12A U20A G78A | ≤ 0.026
60 | C12A U21A | ≤ 0.026
61 | C12A U21A G69C U70A | ≤ 0.026
62 | C12A U21C U70A | ≤ 0.026
63 | C12A U21G A33G U63C | ≤ 0.026

Row | Variant | nonsense suppression
64 | C12A U35A | ≤ 0.026
65 | C12A U35C G59C C64G | ≤ 0.026
66 | C12A U55A | ≤ 0.026
67 | C12A U57A G65A A89U | ≤ 0.026
68 | C12A U57C G67C C72A | ≤ 0.026
69 | C12A U57C U58A | ≤ 0.026
70 | C12A U63A C77G | ≤ 0.026
71 | C12A U63G | ≤ 0.026
72 | C12A U70A | ≤ 0.026
73 | C12A U70A A74U C83A | ≤ 0.026
74 | C12A U71A | ≤ 0.026
75 | C12G A13C G61A C77G | ≤ 0.026
76 | C12G A13G U71C | ≤ 0.026
77 | C12G A14C A23U G69A G78A | ≤ 0.026
78 | C12G A14C A24G G32A U57A | ≤ 0.026
79 | C12G A14C A31G C75G | ≤ 0.026
80 | C12G A14G A33G | ≤ 0.026
81 | C12G A14G U20G C27U C68A C82G | ≤ 0.026
82 | C12G A14G U70A | ≤ 0.026
83 | C12G A14U | ≤ 0.026
84 | C12G A14U A31G G67A C77G | ≤ 0.026
